{"source": "patent US20170320848A1", "about": "“COMPOUNDS FOR USE IN ANTHELMINTHIC TREATMENT” (Bayer Animal Health GMBH, priority 2014, published 2017)", "type_in_all_cases": "cell-based", "key": {"[1]": {"system": "Dirofilaria immitis microfilariae"}, "[2]": {"system": "Cooperia curticei", "experiment": "Cooperia curticei assay (COOPCU), larval mortality", "details": "application rate 20 ppm, after 5 days", "description": "Cooperia Curticei—Assay (COOPCU)\n(§1) Solvent: dimethyl sulfoxide\n(§2) To produce a suitable preparation, 10 mg of active compound are dissolved in 0.5 ml solvent, and the concentrate is diluted with “Ringer's solution” to the desired concentration.\nApproximately 40 nematode larvae (Cooperia curticei) are transferred into a test tube containing the compound solution.\nAfter 5 days percentage of larval mortality is recorded. 100% efficacy means all larvae are killed; 0% efficacy means no larvae are killed."}, "[3]": {"system": "Haemonchus contortus", "experiment": "Haemonchus contortus assay (HAEMCO), larval mortality", "details": "application rate 20 ppm, after 5 days", "description": "Haemonchus Contortus—Assay (HAEMCO)\nas §1, §2\nApproximately 40 larvae of the red stomach worm (Haemonchus contortus) are transferred into a test tube containing compound solution.\nAfter 5 days percentage of larval mortality are recorded. 100% efficacy means all larvae are killed, 0% efficacy means no larvae are killed."}}, "note": "Some of these results come from one statement about several compounds together.", "data": [{"smiles": "O=C(NCC(F)(F)c1ccc(-c2ccc(F)cc2)cc1C(F)(F)F)c1ccccc1C(F)(F)F", "note": "[Example 12, N-(2,2-Difluoro-2-(4′-fluoro-3-(trifluoromethyl)-[1,1′-biphenyl]-4-yl)ethyl)-2-(trifluoromethyl)benzamide]", "values": [{"measurement": "EC50 (reduction of motility)", "setting": "[1]", "value": "< 10", "unit": "ppm"}]}, {"smiles": "N#Cc1ccc(-c2ccc(C(F)(F)CNC(=O)c3ccccc3C(F)(F)F)c(Cl)c2)cc1F", "note": "[Example 25]", "values": [{"measurement": "EC50 (reduction of motility)", "setting": "[1]", "value": "< 10", "unit": "ppm"}]}, {"smiles": "O=C(NCC(F)(F)c1ccc(-c2ccc(F)c(F)c2)cc1Cl)c1ccccc1C(F)(F)F", "note": "[Example 33]", "values": [{"measurement": "EC50 (reduction of motility)", "setting": "[1]", "value": "< 1", "unit": "ppm"}]}, {"smiles": "Cc1cc(-c2ccc(F)cc2)ccc1C(F)(F)CNC(=O)c1ccccc1C(F)(F)F", "note": "[Example 38]", "values": [{"measurement": "EC50 (reduction of motility)", "setting": "[1]", "value": "< 10", "unit": "ppm"}]}, {"smiles": "O=C(NCC(F)(F)c1ccc(-c2cccc(C(F)F)c2)cc1Cl)c1ccccc1C(F)(F)F", "note": "[Example 43]", "values": [{"measurement": "activity (percentage of larval mortality)", "setting": "[2]", "value": 100, "unit": "%"}, {"measurement": "activity (percentage of larval mortality)", "setting": "[3]", "value": 100, "unit": "%"}, {"measurement": "EC50 (reduction of motility)", "setting": "[1]", "value": "< 10", "unit": "ppm"}]}, {"smiles": "O=C(NCC(F)(F)c1ccc(-c2cccc(Cl)c2)cc1Cl)c1ccccc1C(F)(F)F", "note": "[Example 69]", "values": [{"measurement": "activity (percentage of larval mortality)", "setting": "[2]", "value": 100, "unit": "%"}, {"measurement": "activity (percentage of larval mortality)", "setting": "[3]", "value": 100, "unit": "%"}, {"measurement": "EC50 (reduction of motility)", "setting": "[1]", "value": "< 10", "unit": "ppm"}]}, {"smiles": "Cc1cc(-c2ccc(F)c(Cl)c2)ccc1C(F)(F)CNC(=O)c1ccccc1C(F)(F)F", "note": "[Example 124]", "values": [{"measurement": "activity (percentage of larval mortality)", "setting": "[2]", "value": 100, "unit": "%"}, {"measurement": "activity (percentage of larval mortality)", "setting": "[3]", "value": 100, "unit": "%"}, {"measurement": "EC50 (reduction of motility)", "setting": "[1]", "value": "< 10", "unit": "ppm"}]}, {"smiles": "Cc1cc(-c2ccc(Cl)c(F)c2)ccc1C(F)(F)CNC(=O)c1ccccc1C(F)(F)F", "note": "[Example 125]", "values": [{"measurement": "activity (percentage of larval mortality)", "setting": "[2]", "value": 100, "unit": "%"}, {"measurement": "activity (percentage of larval mortality)", "setting": "[3]", "value": 100, "unit": "%"}, {"measurement": "EC50 (reduction of motility)", "setting": "[1]", "value": "< 10", "unit": "ppm"}]}, {"smiles": "Cc1cc(-c2cc(F)c(Cl)c(F)c2)ccc1C(F)(F)CNC(=O)c1ccccc1C(F)(F)F", "note": "[Example 126]", "values": [{"measurement": "activity (percentage of larval mortality)", "setting": "[2]", "value": 100, "unit": "%"}, {"measurement": "activity (percentage of larval mortality)", "setting": "[3]", "value": 100, "unit": "%"}, {"measurement": "EC50 (reduction of motility)", "setting": "[1]", "value": "< 1", "unit": "ppm"}]}]}
